Results as given in the supplement of paper PMC9446081.
About 220 (0.56%) of roughly 39,000 compounds showed activity. This is one part of the list.

These compounds were tested on Escherichia coli K-12 BW25113 (assay: relative growth (OD600 normalised to plate interquartile mean) (fraction); higher = less growth inhibition, active = 0.2 or less). Conditions: 50 µM; LB; incubation time: overnight (16-24 h).
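Also: static incubation at 37 °C against the wild-type strain, values averaged over two biological replicates.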

Row | Structure (SMILES) | relative growth
1 | Cc1noc(C)c1NC(=O)Nc1ccc2c(c1)C(=O)N([C@@H](C)CO)C[C@H](C)[C@@H](CN(C)Cc1ccc3c(c1)OCO3)OCCCC[C@@H](C)O2 | inactive: 0.98
2 | C[C@@H]1CN([C@@H](C)CO)C(=O)c2cc(NC(=O)Nc3ccccc3)ccc2O[C@@H](C)CCCCO[C@@H]1CN(C)S(=O)(=O)c1cccs1 | inactive: 1.05
3 | O=c1[nH]nc2ccccn12 | inactive: 1.01
4 | C[C@@H]1CN([C@@H](C)CO)C(=O)c2cc(NS(=O)(=O)c3ccc(Cl)cc3)ccc2O[C@H]1CN(C)Cc1ccc(-c2ccccc2)cc1 | inactive: 1.03
5 | Cc1ccc(S(=O)(=O)Nc2cccc3c2O[C@@H](CN(C)Cc2ccc(-c4ccccc4)cc2)[C@@H](C)CN([C@@H](C)CO)C3=O)cc1 | inactive: 1.02
6 | Nc1nc(NC2CC2)c2ncn(C3C=CC(CO)C3)c2n1.O=S(=O)(O)O (stereo not drawn) | inactive: 1.19
7 | CN1CCN(C(=O)C[C@@H]2CC[C@H]3[C@@H](COC[C@H](O)CN3C(=O)Nc3cc(Cl)cc(Cl)c3)O2)CC1 | inactive: 0.978
8 | C[C@@H]1CCCCO[C@H](CN(C)S(=O)(=O)c2ccccc2)[C@@H](C)CN([C@H](C)CO)C(=O)c2cc(NS(=O)(=O)c3cn(C)cn3)ccc2O1 | inactive: 0.978
9 | COc1ccc2c3c(n(c2c1)C)[C@@H](CO)N(C[C@]13CN(C1)C(=O)Nc1cccc(c1)F)S(=O)(=O)C | inactive: 0.984
10 | C[C@@H]1CN([C@H](C)CO)C(=O)c2cc(NC(=O)Nc3cccc4ccccc34)ccc2O[C@@H]1CN(C)Cc1ccccc1 | inactive: 1.02
11 | Cc1noc(C)c1NC(=O)N(C)C[C@H]1Oc2ccc(NS(=O)(=O)c3cccs3)cc2CC(=O)N([C@H](C)CO)C[C@H]1C | inactive: 0.985
12 | C[C@H]1CN([C@@H](C)CO)C(=O)Cc2cc(NC(=O)Nc3ccc(C(F)(F)F)cc3)ccc2O[C@H]1CN(C)Cc1ccccc1 | inactive: 1.04
13 | O=C(C[C@H]1CC[C@H]2[C@@H](COC[C@@H](O)CN2C(=O)c2cccnc2)O1)NCc1ccc(-c2ccccc2)cc1 | inactive: 1.02
14 | C=C1C(c2ccc(C)cc2)=CCc2cc(C)cc(C)c21 | inactive: 0.959
15 | O=C(OC[C@H]1O[C@@H](OC(=O)c2cc(O)c(O)c(O)c2)[C@H](O)[C@@H](O)[C@@H]1O)c1cc(O)c(O)c(O)c1 | inactive: 0.778
16 | C[C@@H]1CN([C@@H](C)CO)C(=O)c2cc(NC(=O)c3ccncc3)ccc2O[C@@H](C)CCCCO[C@H]1CN(C)CC1CCCCC1 | inactive: 0.996
17 | COc1ccc(C#Cc2cnc3c(c2)C(=O)N([C@H](C)CO)C[C@H](C)[C@H](CN(C)S(=O)(=O)c2cn(C)cn2)O3)cc1OC | inactive: 1.01
18 | COc1ccc(S(=O)(=O)N(C)C[C@H]2OCCCC[C@@H](C)Oc3ccc(NS(=O)(=O)c4ccc(Cl)cc4)cc3C(=O)N([C@@H](C)CO)C[C@H]2C)cc1 | inactive: 1.03
19 | Cc1cc(C)c2nnc(SCC(=O)O)n2n1 | inactive: 1

Row | Structure (SMILES) | relative growth
20 | Cc1noc(C)c1S(=O)(=O)Nc1ccc2c(c1)C(=O)N([C@H](C)CO)C[C@@H](C)[C@H](CN(C)S(=O)(=O)c1ccc(F)cc1)O2 | inactive: 0.975
21 | O=[N+]([O-])c1ccc(NCCO)c(OCCO)c1 | inactive: 1.01
22 | CC(C)Cc1cc(CN)on1 | inactive: 1.04
23 | C[C@@H]1CCCCO[C@@H](CN(C)CC2CC2)[C@@H](C)CN([C@H](C)CO)C(=O)c2cc(NC(=O)Nc3ccccc3)ccc2O1 | inactive: 0.989
24 | C[C@H](CO)N1C[C@H](C)[C@H](CN(C)C(=O)Nc2ccc(-c3ccccc3)cc2)OCc2ccccc2-c2c(n(C)c3ccccc23)C1=O | inactive: 1.02
25 | COc1ccc(CN(C)C[C@H]2Oc3ccc(NC(=O)Nc4ccc(C(F)(F)F)cc4)cc3CC(=O)N([C@@H](C)CO)C[C@H]2C)cc1 | inactive: 0.99
26 | C[C@H]1CN([C@@H](C)CO)S(=O)(=O)c2ccc(C#CC(C)(C)O)cc2O[C@H]1CN(C)C(=O)C1CCCCC1 | inactive: 0.995
27 | COc1ccc2c3c([nH]c2c1)[C@H](CO)N(Cc1cc(ccc1F)F)C[C@]13CCN(CC1)C(=O)CN(C)C | inactive: 1.03
28 | Cc1noc(C)c1NC(=O)N(C)C[C@@H]1Oc2ccc(NS(=O)(=O)c3ccccc3)cc2C(=O)N([C@@H](C)CO)C[C@@H]1C | inactive: 0.955
29 | COCC#Cc1ccc2c(c1)O[C@@H](CN(C)C(=O)COC)[C@@H](C)CN([C@H](C)CO)S2(=O)=O | inactive: 1.01
30 | COc1cc([C@@H]2c3cc4c(cc3[C@@H](O[C@@H]3O[C@@H]5CO[C@@H](C)O[C@H]5[C@H](O)[C@H]3O)[C@@H]3COC(=O)[C@@H]23)OCO4)cc(OC)c1O | inactive: 1.01
31 | Cc1cc(C(=O)Nc2cccc3c2O[C@H](CN(C)S(=O)(=O)c2ccccc2)[C@H](C)CN([C@@H](C)CO)C3=O)n(C)n1 | inactive: 0.993
32 | CCOC(=O)c1nnn(-c2nonc2N)c1CN1CCSCC1 | inactive: 1.01
33 | C[C@@H]1CCCCO[C@@H](CN(C)S(=O)(=O)c2cn(C)cn2)[C@H](C)CN([C@@H](C)CO)C(=O)c2cc(NS(=O)(=O)c3cn(C)cn3)ccc2O1 | inactive: 0.992
34 | CC(C)NC(=O)N(C)C[C@H]1Oc2ccc(NC(=O)CCCN(C)C)cc2C(=O)N([C@@H](C)CO)C[C@@H]1C | inactive: 0.972
35 | COc1ccc(S(=O)(=O)N(C)C[C@H]2OCCCC[C@H](C)Oc3ccc(NC(=O)CCC(F)(F)F)cc3C(=O)N([C@H](C)CO)C[C@H]2C)cc1 | inactive: 1
36 | C[C@H]1CN([C@@H](C)CO)C(=O)Cc2cc(NS(=O)(=O)c3ccc(F)cc3)ccc2O[C@@H]1CN(C)Cc1ccncc1 | inactive: 0.99
37 | COc1ccc(S(=O)(=O)Nc2ccc3c(c2)C(=O)N([C@H](C)CO)C[C@@H](C)[C@H](CN(C)S(=O)(=O)c2cccs2)O3)cc1 | inactive: 1.01
38 | C[C@H](CO)N1C[C@H](C)[C@H](CN(C)S(=O)(=O)c2cccs2)Oc2ccc(NS(=O)(=O)c3cn(C)cn3)cc2C1=O | inactive: 0.993
